Results published in US20210269548A1 (Kyowa Kirin, published 2021).
Positions count from the first letter of the chain named. Names may count otherwise.

B1: CSPG5201 scFv-hG4PE(R409K) (Fc fusion)
VH: [omitted - about 100 residues]KWNLFDYWGQGTLVTVSS
VL: QSALTQPASVSGSPGQSITISCTGTSTDVNGYNYVSWYQQYAGKAPKLIIFDVSKRPSGVSNRFSGSKSGDTASLTISGLQAEDEADYHCSSYRRLRLPVLFGGGTKLTVL
notes: also called anti-CSPG5 scFv-Fc antibody
B2: CSPG5206 scFv-hG4PE(R409K) (Fc fusion)
VH: [omitted - about 100 residues]KRSLAFDYWGQGTLVTVSS
VL: B1 VL with R94N, L96K, L98P
notes: as for B1
B3: CSPG5230 scFv-hG4PE(R409K) (Fc fusion)
VH: [omitted - about 100 residues]STPARFDYWGQGTLVTVSS
VL: B1 VL with R94H, R95T, L96R, R97P, L98A, P99T
notes: as for B1
B4: CSPG5207 scFv-hG4PE(R409K) (Fc fusion)
VH: [omitted - about 100 residues]WARTSPFDYWGQGTLVTVSS
VL: B1 VL with R94T, R95P, L96S, L98A, P99R
notes: as for B1
B5: CSPG5214 scFv-hG4PE(R409K) (Fc fusion)
VH: [omitted - about 100 residues]TRRTTMFDYWGQGTLVTVSS
VL: B1 VL with R94N, R95P, L96H, R97H, L98S, P99G
notes: as for B1
B6: CSPG5234 scFv-hG4PE(R409K) (Fc fusion)
VH: [omitted - about 100 residues]RHSYAPFDYWGQGTLVTVSS
VL: B1 VL with R95P, L96K, R97A, L98R, P99S
notes: as for B1
B7: CSPG5219 scFv-hG4PE(R409K) (Fc fusion)
VH: [omitted - about 100 residues]MNSWRAFDYWGQGTLVTVSS
VL: EIVLTQSPGTLSLSPGERATLSCRASQSVSSSYLAWYQQKPGQAPRLLIYGASSRATGIPDRFSGSGSGTDFTLTISRLEPEDFAVYYCQQLRRKGSTFGQGSKVEIK
notes: as for B1

Biological target: T1, monkey CSPG5 (monkey (rhesus monkey), UniProt O95196 31-566 (human entry))
T1 construct: Full-length gene expressed on Expi293F cells; also called monkey CSPG5/Expi293F cells; rhesus monkey CSPG5
T1 chain: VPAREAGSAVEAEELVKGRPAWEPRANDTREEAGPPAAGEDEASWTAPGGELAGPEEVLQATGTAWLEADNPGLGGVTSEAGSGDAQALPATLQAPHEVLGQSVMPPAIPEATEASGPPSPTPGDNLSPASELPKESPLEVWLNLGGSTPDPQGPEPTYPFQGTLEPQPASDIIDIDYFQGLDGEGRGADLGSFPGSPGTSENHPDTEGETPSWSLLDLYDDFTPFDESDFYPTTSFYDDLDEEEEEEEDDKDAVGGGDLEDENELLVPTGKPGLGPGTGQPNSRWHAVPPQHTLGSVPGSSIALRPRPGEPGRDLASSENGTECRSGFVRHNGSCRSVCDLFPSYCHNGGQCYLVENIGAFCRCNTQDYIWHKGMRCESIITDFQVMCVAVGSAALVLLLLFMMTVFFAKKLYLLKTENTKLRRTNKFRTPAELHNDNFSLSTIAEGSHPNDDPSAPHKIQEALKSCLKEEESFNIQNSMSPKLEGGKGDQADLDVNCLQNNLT
Test: FACS, 10 µg/mL antibody, monkey CSPG5/Expi293F vs Expi293F
Experimental: (§1) Expi293F cells, human CSPG5/Expi293F cells, mouse CSPG5/Expi293F cells, and monkey CSPG5/Expi293F cells were separately suspended in Staining Buffer (SB) of PBS comprising 0.1% NaN₃ and 1% FBS and dispensed in a round-bottom 96-well plate (manufactured by Becton, Dickinson and Company). After centrifugation (2000 rpm, 4° C., 2 minutes), the supernatant was removed, and to the resulting pellet, 10 μg/mL of each antibody obtained in Example 2 was added to suspend the pellet, and the resulting suspension was left to stand for 30 minutes at ice temperature. After further centrifugation (2000 rpm, 4° C., 2 minutes), the supernatant was removed, and the resulting pellet was washed with SB, and thereafter, 1 μg/mL of an RPE fluorescently labeled goat anti-human antibody (manufactured by Southern Biotech, Inc.) was added thereto, and the resultant was incubated for 30 minutes at ice temperature. After washing with SB, the cells were suspended in SB, and the fluorescence intensity of each cell was measured using a flow cytometer FACS CANTO II (manufactured by Becton, Dickinson and Company). Note that as a negative control, 10 μg/mL of the anti-AVM antibody was used.
(§2) The detection results were analyzed, and a mean fluorescence intensity (MFI) was calculated using a geometric mean. Further, with respect to the MFI when the concentration of each antibody was 10 μg/mL, the ratio of the MFI (mean fluorescence intensity ratio) between the human CSPG5/Expi293F cells and the Expi293F cells (parent cell line) was calculated. Also for the monkey CSPG5/Expi293F cells and the mouse CSPG5/Expi293F cells, the mean fluorescence intensity ratio relative to the Expi293F cells (parent cell line) was calculated by the same procedure, and the results are shown in Table 3.

Binder	Mean fluorescence intensity ratio
B1	1.73 ratio to parent cell line
B2	3.4 ratio to parent cell line
B3	4.45 ratio to parent cell line
B4	3.87 ratio to parent cell line
B5	4.03 ratio to parent cell line
B6	10.4 ratio to parent cell line
B7	5.74 ratio to parent cell line

Biological target: mouse CSPG5-GST (mouse)
Test: SPR Biacore T-100, antibody captured, mouse CSPG5-GST analyte
Experimental: The affinity of the anti-CSPG5 antibodies, the CSPG5202 IgG4PE(R409K), and the AVM IgG4PE(R409K) CSPG5202 dscFv produced in Example 2 for human CSPG5 and mouse CSPG5 was measured using Biacore T-100 (GE Healthcare).
Each of the antibodies was immobilized on a […] sensor chip using a Human antibody Capture kit, and the binding ability was evaluated using human CSPG5-GST and mouse CSPG5-GST produced in Example 4 as analytes. The obtained sensorgram was analyzed with BIA evaluation software, and the dissociation constant (KD value) was calculated.

Binder	Kd [nM]
B1	≤ 10
B2	≤ 10
B3	≤ 10
B4	≤ 10
B5	≤ 10
B6	≤ 10
B7	≤ 10

Biological target: T2, mouse CSPG5 (mouse, UniProt Q71M36 31-566)
T2 construct: Full-length gene expressed on Expi293F cells; also called mouse CSPG5/Expi293F cells
T2 sequence: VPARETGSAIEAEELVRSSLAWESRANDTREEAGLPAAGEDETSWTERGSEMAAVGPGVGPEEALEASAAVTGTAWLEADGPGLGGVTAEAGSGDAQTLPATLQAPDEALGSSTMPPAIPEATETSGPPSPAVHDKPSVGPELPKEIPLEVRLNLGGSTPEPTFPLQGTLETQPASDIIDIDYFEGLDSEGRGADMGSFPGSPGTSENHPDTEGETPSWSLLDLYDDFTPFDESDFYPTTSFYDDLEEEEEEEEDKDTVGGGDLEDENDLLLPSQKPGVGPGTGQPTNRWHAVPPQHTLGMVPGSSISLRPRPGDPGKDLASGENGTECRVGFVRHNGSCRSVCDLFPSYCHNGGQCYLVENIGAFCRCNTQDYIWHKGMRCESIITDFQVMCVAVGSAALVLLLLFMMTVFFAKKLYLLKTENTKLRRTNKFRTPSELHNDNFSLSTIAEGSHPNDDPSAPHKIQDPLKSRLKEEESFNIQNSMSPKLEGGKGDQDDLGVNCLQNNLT
Test: FACS, 10 µg/mL antibody, mouse CSPG5/Expi293F vs Expi293F
Experimental: as §1, §2

Binder	Mean fluorescence intensity ratio
B1	2.95 ratio to parent cell line
B2	4.5 ratio to parent cell line
B3	3.56 ratio to parent cell line
B4	4.19 ratio to parent cell line
B5	2.28 ratio to parent cell line
B6	14.3 ratio to parent cell line
B7	4.87 ratio to parent cell line

Biological target: T3, human CSPG5 (human, UniProt O95196 31-566)
T3 construct: Full-length gene expressed on cell membrane (Expi293F, L929); also called human CSPG5/Expi293F cells; human CSPG5/L929#09
T3 sequence: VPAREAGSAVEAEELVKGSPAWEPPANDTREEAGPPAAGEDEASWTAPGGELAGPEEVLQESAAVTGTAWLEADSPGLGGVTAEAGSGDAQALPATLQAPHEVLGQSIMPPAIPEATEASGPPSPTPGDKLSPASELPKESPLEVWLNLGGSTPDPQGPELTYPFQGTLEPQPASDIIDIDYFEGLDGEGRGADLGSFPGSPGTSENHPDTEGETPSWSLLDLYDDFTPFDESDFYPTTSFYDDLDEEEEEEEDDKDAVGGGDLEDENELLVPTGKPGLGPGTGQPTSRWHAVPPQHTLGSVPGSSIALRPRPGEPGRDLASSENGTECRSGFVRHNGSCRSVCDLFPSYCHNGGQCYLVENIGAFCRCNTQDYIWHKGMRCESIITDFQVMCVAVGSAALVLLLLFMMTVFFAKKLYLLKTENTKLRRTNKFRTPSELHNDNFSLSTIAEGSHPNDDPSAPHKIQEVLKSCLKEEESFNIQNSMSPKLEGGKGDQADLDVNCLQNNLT
Test: FACS, 10 µg/mL antibody, human CSPG5/Expi293F vs Expi293F
Experimental: as §1, §2

Binder	Mean fluorescence intensity ratio
B1	2.41 ratio to parent cell line
B2	4.31 ratio to parent cell line
B3	3.35 ratio to parent cell line
B4	4.23 ratio to parent cell line
B5	2.15 ratio to parent cell line
B6	14.1 ratio to parent cell line
B7	4.75 ratio to parent cell line
